Data: a compilation of properties of binary mixtures (doi:10.1016/j.molliq.2021.115962)
The densities may have been worked out from excess volumes.

Test: xn = mol fraction of the nth substance listed
Conditions: 100 kPa

CCCC[n+]1cccc(C)c1.F[B-](F)(F)F + O
mass density [kg/m3]
Conditions | 293.15 K | 298.15 K | 303.15 K | 308.15 K
x1 = 0.0001 | 998.4 | 997.2 | – | –
x1 = 0.0002 | 998.6 | 997.4 | 995.9 | –
x1 = 0.0003 | 998.9 | 997.7 | 996.2 | 994.5
x1 = 0.0005 | 999.2 | 998 | – | 994.8
x1 = 0.0007 | – | 998.4 | – | 995.2
x1 = 0.0009 | 1000 | 998.8 | 997.3 | –
x1 = 0.0011 | 1000.5 | 999.2 | 997.8 | 996.1
x1 = 0.0016 | 1001.5 | 1000.2 | 998.6 | 996.9
x1 = 0.0018 | – | 1000.5 | – | –
x1 = 0.0021 | 1002.4 | 1001.2 | – | 997.8
x1 = 0.0024 | – | 1001.7 | – | –
x1 = 0.0025 | 1003.2 | – | 1000.2 | 998.5
x1 = 0.0034 | 1005 | 1003.6 | 1002 | 1000.2
x1 = 0.0038 | 1005.8 | 1004.4 | – | 1000.9
x1 = 0.004 | – | 1004.7 | – | –
x1 = 0.0043 | – | 1005.2 | 1003.6 | –
x1 = 0.0044 | – | 1005.5 | – | –
x1 = 0.0049 | – | 1006.2 | – | –
x1 = 0.0055 | – | 1007.2 | – | –
x1 = 0.0056 | 1008.9 | – | 1005.7 | 1003.8
x1 = 0.0063 | – | 1008.8 | – | –
x1 = 0.0065 | 1010.5 | 1009 | 1007.2 | 1005.3
x1 = 0.0073 | – | 1010.6 | 1008.7 | –
x1 = 0.0083 | 1013.6 | 1012 | 1010.2 | 1008.2
x1 = 0.0089 | 1014.7 | 1013.1 | 1011.2 | 1009.2
x1 = 0.0091 | – | 1013.7 | – | –
x1 = 0.0102 | – | 1015.6 | – | –
x1 = 0.0122 | – | 1018.9 | – | –
x1 = 1 | 1185.4 | 1182.3 | 1178.5 | –

CCCCCC[n+]1ccn(C)c1.[Br-] + O
mass density [kg/m3]
Conditions | x1 = 0.0044 | x1 = 0.0059 | x1 = 0.0075 | x1 = 0.0106 | x1 = 0.0134 | x1 = 0.0173 | x1 = 0.0226 | x1 = 0.0295 | x1 = 0.0367 | x1 = 1
293.15 K | 1009.4 | 1013.1 | 1016.9 | 1023.9 | 1030.1 | – | – | – | – | 1230
298.15 K | – | 1011.6 | – | – | 1028.2 | 1036 | 1045.6 | 1057 | – | 1226.5
303.15 K | – | 1009.9 | 1013.5 | 1020.2 | 1026.1 | 1033.7 | 1043.4 | 1054.4 | 1064.7 | 1222.9
308.15 K | – | 1008 | – | 1018.1 | 1023.9 | 1031.4 | 1040.7 | – | 1061.8 | 1219.2

CCCC[n+]1ccn(C)c1.O=S(=O)([O-])C(F)(F)F + O
mass density [kg/m3]
Conditions | 293.15 K | 298.15 K | 303.15 K | 308.15 K
x1 = 0.0002 | 999 | – | 996.3 | –
x1 = 0.0005 | 1000.3 | 999.1 | 997.6 | 995.9
x1 = 0.0012 | 1002.8 | – | 1000 | 998.3
x1 = 0.0022 | – | 1005.3 | – | –
x1 = 0.0024 | – | 1006.1 | 1004.5 | 1002.7
x1 = 0.0034 | 1011.1 | – | 1008.1 | –
x1 = 0.0038 | – | 1010.9 | – | –
x1 = 0.0048 | 1015.8 | 1014.4 | 1012.6 | 1010.7
x1 = 0.0058 | 1019.3 | 1017.8 | 1016.1 | 1014.1
x1 = 0.006 | – | – | 1016.9 | 1014.9
x1 = 0.0066 | 1022.2 | 1020.6 | 1018.8 | 1016.9
x1 = 0.0085 | 1028.6 | 1026.9 | 1025.1 | 1023
x1 = 0.0086 | 1028.7 | 1027 | 1025.1 | 1023.1
x1 = 0.0097 | – | 1030 | – | –
x1 = 0.0125 | 1040.8 | 1038.9 | 1036.9 | 1034.6
x1 = 0.0148 | – | 1045.7 | – | –
x1 = 0.0192 | 1059.5 | – | – | 1052.4
x1 = 0.024 | 1071.4 | – | 1066.5 | 1063.8
x1 = 0.0287 | – | 1079 | – | –
x1 = 0.0289 | – | 1079.8 | 1077.2 | 1074.3
x1 = 0.0383 | – | 1097.6 | – | –
x1 = 1 | – | – | – | 1289.7

O + CCCC[n+]1cccc(C)c1.F[B-](F)(F)F
Conditions | mass density [kg/m3]
308.15 K, x2 = 0 | 993.9

O + CCCCCC[n+]1ccn(C)c1.[Br-]
Conditions | mass density [kg/m3]
308.15 K, x2 = 0 | 993.9
